In US20260242437A1 (BEIJING MABWORKS BIOTECH, published 2026):

How the values were obtained:
[1] = biological target: T1, human IL-2Rαβγ (high-affinity IL-2 receptor) on cells (human, UniProt P01589 22-272; P14784 27-551; P31785 23-369); test: cell-based or functional assay
T1 sequence (looked up) 1: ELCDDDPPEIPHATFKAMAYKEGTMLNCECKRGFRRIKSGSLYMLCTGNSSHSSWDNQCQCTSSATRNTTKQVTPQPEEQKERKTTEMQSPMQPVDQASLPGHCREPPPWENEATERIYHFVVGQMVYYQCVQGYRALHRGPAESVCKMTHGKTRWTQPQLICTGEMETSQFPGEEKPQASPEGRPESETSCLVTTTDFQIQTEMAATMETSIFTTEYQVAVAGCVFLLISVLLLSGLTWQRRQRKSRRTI
T1 sequence (looked up) 2: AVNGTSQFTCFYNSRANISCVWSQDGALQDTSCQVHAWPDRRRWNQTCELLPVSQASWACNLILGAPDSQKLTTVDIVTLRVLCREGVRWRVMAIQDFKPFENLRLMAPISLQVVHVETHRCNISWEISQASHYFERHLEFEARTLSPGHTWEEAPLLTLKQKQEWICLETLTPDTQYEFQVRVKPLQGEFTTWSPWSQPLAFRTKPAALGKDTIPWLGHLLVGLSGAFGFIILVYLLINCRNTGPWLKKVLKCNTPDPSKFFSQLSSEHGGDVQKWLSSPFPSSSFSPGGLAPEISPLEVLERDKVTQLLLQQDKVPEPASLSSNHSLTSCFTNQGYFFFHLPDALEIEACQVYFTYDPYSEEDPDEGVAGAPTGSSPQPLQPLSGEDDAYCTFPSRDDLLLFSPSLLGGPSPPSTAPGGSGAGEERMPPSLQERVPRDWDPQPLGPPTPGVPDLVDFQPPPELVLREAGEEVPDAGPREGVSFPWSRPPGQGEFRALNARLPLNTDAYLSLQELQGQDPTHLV
T1 sequence (looked up) 3: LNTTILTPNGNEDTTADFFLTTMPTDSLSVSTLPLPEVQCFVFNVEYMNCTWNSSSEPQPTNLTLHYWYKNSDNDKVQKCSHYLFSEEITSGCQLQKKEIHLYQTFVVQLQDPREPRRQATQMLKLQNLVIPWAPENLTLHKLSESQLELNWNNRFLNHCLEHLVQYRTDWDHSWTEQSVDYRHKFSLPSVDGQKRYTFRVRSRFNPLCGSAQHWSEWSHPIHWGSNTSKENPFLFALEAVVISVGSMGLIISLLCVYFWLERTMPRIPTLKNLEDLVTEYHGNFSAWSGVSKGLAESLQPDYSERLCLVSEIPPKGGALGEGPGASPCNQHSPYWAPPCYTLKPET

[2] = biological target: T2, human IL-2Rβγ on CD8+ effector T cells (human, UniProt P14784 27-551; P31785 23-369); test: flow cytometry on primary human CD8+ effector T cells, PE goat anti-human IgG, MFI
T2 construct: whole, on cells; the assay was on primary human CD8+ effector T cells
T2 sequence (looked up) 1: T1 sequence (looked up) 2
T2 sequence (looked up) 2: T1 sequence (looked up) 3

[3] = biological target: T1, human IL-2Rαβγ (high-affinity IL-2 …); test: cell-based or functional assay; remark: listed apart in the source
[4] = biological target: T3, recombinant human IL-2Rβγ protein (human, UniProt P14784 27-240; P31785 23-262); test: SPR (BIAcore 8K), bispecific protein captured by anti-human Fc on CM5, IL-2Rβγ in flow
T3 construct: Bought protein
T3 sequence (looked up) 1: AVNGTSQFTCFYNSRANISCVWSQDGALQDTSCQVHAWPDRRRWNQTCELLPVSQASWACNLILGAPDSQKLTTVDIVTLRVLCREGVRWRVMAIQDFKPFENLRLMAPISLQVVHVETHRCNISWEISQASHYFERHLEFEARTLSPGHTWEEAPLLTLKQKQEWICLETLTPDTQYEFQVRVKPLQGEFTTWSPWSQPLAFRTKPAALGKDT
T3 sequence (looked up) 2: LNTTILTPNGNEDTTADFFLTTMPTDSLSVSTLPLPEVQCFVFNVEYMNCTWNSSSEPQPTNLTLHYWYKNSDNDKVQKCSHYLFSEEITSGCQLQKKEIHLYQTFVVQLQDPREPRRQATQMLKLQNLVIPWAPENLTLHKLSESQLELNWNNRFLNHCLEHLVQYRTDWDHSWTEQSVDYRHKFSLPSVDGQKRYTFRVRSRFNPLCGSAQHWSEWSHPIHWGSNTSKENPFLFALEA

human PD-1 = human PD-1 (human, UniProt Q15116 25-288); test: cell-based or functional assay
Sequence of human PD-1 (Q15116 25-288 limits assumed): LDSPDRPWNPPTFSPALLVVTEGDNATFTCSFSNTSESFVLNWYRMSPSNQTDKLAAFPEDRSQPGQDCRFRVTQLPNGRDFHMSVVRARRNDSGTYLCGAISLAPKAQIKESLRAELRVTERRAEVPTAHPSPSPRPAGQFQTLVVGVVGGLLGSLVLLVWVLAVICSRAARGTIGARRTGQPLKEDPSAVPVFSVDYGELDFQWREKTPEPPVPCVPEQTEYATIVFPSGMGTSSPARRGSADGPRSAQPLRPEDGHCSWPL

B1: G12: Fc-linker-IL2-G12 (Fc fusion)
chain: [human IgG1 Fc omitted here]GGGSGGGGSGGGGSAPASSSTKKTQLQLEHLLLDLQMILNGINNYKNLTRMLTFKFYMPKKATELKHLQCLEEELKPLEEVLNLAQSKNFHLRPRDLISNINVIVLELKGSETTFMCEYADETATIVEFLNRWITFSQSIISTLT
notes: IL-2 part IL2-G12 (delP34-K35)
EC50 (nM), activation of HEK-Blue/IL-2 cells [1]: 0.06 nM | EC50 ratio of IL-2 variant-containing protein to WT [1]: 5 | binding result [2]: binds

B2: G13: Fc-linker-IL2-G13 (Fc fusion)
chain: [human IgG1 Fc omitted here]GGGSGGGGSGGGGSAPASSSTKKTQLQLEHLLLDLQMILNGINNYKNLTRMLTAKFYMPKKATELKHLQCLEEELKPLEEVLNLAQSKNFHLRPRDLISNINVIVLELKGSETTFMCEYADETATIVEFLNRWITFSQSIISTLT
notes: IL-2 part IL2-G13 (delP34-K35, F42A)
EC50 (nM), activation of HEK-Blue/IL-2 cells [1]: 0.204 nM | EC50 ratio of IL-2 variant-containing protein to WT [1]: 17 | binding result [2]: binds

B3: D22: Fc-linker-IL2-D22 (Fc fusion)
chain: [human IgG1 Fc omitted here]GGGSGGGGSGGGGSAPASSSTKKTQLQLEHLLLDLQMILNGINNYKNPLTRMLTFKFRMPKKATELKHLQCLEEELKPLEEVLNLAQSKNFHLRPRDLISNINVIVLELKGSETTFMCEYADETATIVEFLNRWITFSQSIISTLT
notes: IL-2 part IL2-D22 (delK35, Y45R)
EC50 (nM), activation of HEK-Blue/IL-2 cells [1]: 0.145 nM | EC50 ratio of IL-2 variant-containing protein to WT [1]: 12 | binding result [2]: binds

B4: D37: Fc-linker-IL2-D37 (Fc fusion)
chain: [human IgG1 Fc omitted here]GGGSGGGGSGGGGSAPASSSTKKTQLQLEHLLLDLQMILNGINNYKNPLTRMLTAKFRMPKKATELKHLQCLEEELKPLEEVLNLAQSKNFHLRPRDLISNINVIVLELKGSETTFMCEYADETATIVEFLNRWITFSQSIISTLT
notes: IL-2 part IL2-D37 (delK35, F42A, Y45R)
EC50 (nM), activation of HEK-Blue/IL-2 cells [1]: 0.321 nM | EC50 ratio of IL-2 variant-containing protein to WT [1]: 26.7 | binding result [2]: binds

B5: PC: Fc-linker-IL2 (positive control protein, IL-2 part from RG6279) (Fc fusion)
chain: [human IgG1 Fc omitted here]GGGSGGGGSGGGGSAPASSSTKKTQLQLEHLLLDLQMILNGINNYKNPKLTRMLTAKFAMPKKATELKHLQCLEEELKPLEEVLNGAQSLMFHRDLISNINVIVLELKGSETTFMCEYADETATIVEFLNRWITFAQSIISTLT
EC50 (nM), activation of HEK-Blue/IL-2 cells [1]: 0.221 nM | EC50 ratio of IL-2 variant-containing protein to WT [1]: 18

B6: bispecific recombinant protein 309-0 (other)
heavy 1: QVQLVQSGVEVKKPGASVKVSCKASGYTFTNYYMYWVRQAPGQGLEWMGGINPSNGGTNFNEKFKNRVTLTTDSSTTTAYMELKSLQFDDTAVYYCARRDYRFDMGFDYWGQGTTVTVSSASTKGPSVFPLAPSSKSTSGGTAALGCLVKDYFPEPVTVSWNSGALTSGVHTFPAVLQSSGLYSLSSVVTVPSSSLGTQTYICNVNHKPSNTKVDKKVEPKSCDKTHTCPPCPAPEAAGGPSVFLFPPKPKDTLMISRTPEVTCVVVDVSHEDPEVKFNWYVDGVEVHNAKTKPREEQYNSTYRVVSVLTVLHQDWLNGKEYKCKVSNKALAAPIEKTISKAKGQPREPQVYTLPPSRDELTKNQVSLSCAVKGFYPSDIAVEWESNGQPENNYKTTPPVLDSDGSFFLVSKLTVDKSRWQQGNVFSCSVMHEALHNHYTQKSLSLSP
heavy 2: QVQLVQSGVEVKKPGASVKVSCKASGYTFTNYYMYWVRQAPGQGLEWMGGINPSNGGTNFNEKFKNRVTLTTDSSTTTAYMELKSLQFDDTAVYYCARRDYRFDMGFDYWGQGTTVTVSSASTKGPSVFPLAPSSKSTSGGTAALGCLVKDYFPEPVTVSWNSGALTSGVHTFPAVLQSSGLYSLSSVVTVPSSSLGTQTYICNVNHKPSNTKVDKKV[human IgG1 Fc with L234A L235A P329A T366W (EU numbers) omitted here]GGGGSGGGGSGGGGSAPASSSTKKTQLQLEHLLLDLQMILNGINNYKNPLTRMLTAKFRMPKKATELKHLQCLEEELKPLEEVLNLAQSKNFHLRPRDLISNINVIVLELKGSETTFMCEYADETATIVEFLNRWITFSQSIISTLT
light: EIVLTQSPATLSLSPGERATLSCRASKGVSTSGYSYLHWYQQKPGQAPRLLIYLASYLESGVPARFSGSGSGTDFTLTISSLEPEDFAVYYCQHSRDLPLTFGGGTKVEIKRTVAAPSVFIFPPSDEQLKSGTASVVCLLNNFYPREAKVQWKVDNALQSGNSQESVTEQDSKDSTYSLSSTLTLSKADYEKHKVYACEVTHQGLSSPVTKSFNRGEC
notes: Anti-PD-1 IgG1 (Keytruda variable regions; L234A/L235A/P329A, knob-into-hole) with one IL2-D37 linked to the C terminus of the knob heavy chain
EC50 (ng/mL)-PD1- HEK-Blue/IL-2 [3]: 5.34 ng/mL | Kd [4]: 0.477 nM | kon [4]: 192000 M⁻¹ s⁻¹

B7: bispecific recombinant protein 309-3 (other)
heavy 1: B6 heavy 1
heavy 2: QVQLVQSGVEVKKPGASVKVSCKASGYTFTNYYMYWVRQAPGQGLEWMGGINPSNGGTNFNEKFKNRVTLTTDSSTTTAYMELKSLQFDDTAVYYCARRDYRFDMGFDYWGQGTTVTVSSASTKGPSVFPLAPSSKSTSGGTAALGCLVKDYFPEPVTVSWNSGALTSGVHTFPAVLQSSGLYSLSSVVTVPSSSLGTQTYICNVNHKPSNTKVDKKV[human IgG1 Fc with L234A L235A P329A T366W (EU numbers) omitted here]GGGGSGGGGSGGGGSAPASSSTKKTQLQLEHLLLDLQMILNGINNYKNPLTRMLTAKFRMPKKATELKHLQCLEEELKPLEEVLNLAQSKNFHLRPRDLITNINVIVLELKGSETTFMCEYADETATIVEFLNRWITFSQSIISTLT
light: B6 light
EC50 (ng/mL)-PD1- HEK-Blue/IL-2 [3]: 6.56 ng/mL | Kd [4]: 0.62 nM | koff [4]: 9.42e-05 s⁻¹ | kon [4]: 152000 M⁻¹ s⁻¹

B8: bispecific recombinant protein 309-6 (other)
heavy 1: B6 heavy 1
heavy 2: QVQLVQSGVEVKKPGASVKVSCKASGYTFTNYYMYWVRQAPGQGLEWMGGINPSNGGTNFNEKFKNRVTLTTDSSTTTAYMELKSLQFDDTAVYYCARRDYRFDMGFDYWGQGTTVTVSSASTKGPSVFPLAPSSKSTSGGTAALGCLVKDYFPEPVTVSWNSGALTSGVHTFPAVLQSSGLYSLSSVVTVPSSSLGTQTYICNVNHKPSNTKVDKKV[human IgG1 Fc with L234A L235A P329A T366W (EU numbers) omitted here]GGGGSGGGGSGGGGSAPASSSTKKTQLQLEHLLLLLQMILNGINNYKNPLTRMLTAKFRMPKKATELKHLQCLEEELKPLEEVLNLAQSKNFHLRPRDLISNINVIVLELKGSETTFMCEYADETATIVEFLNRWITFSQSIISTLT
light: B6 light
EC50 (ng/mL)-PD1+ HEK Blue/IL-2 (human PD-1): 166 ng/mL | Kd [4]: 56.6 nM | koff [4]: 0.00763 s⁻¹ | kon [4]: 135000 M⁻¹ s⁻¹

B9: bispecific recombinant protein 309-4 (other)
heavy 1: B6 heavy 1
heavy 2: QVQLVQSGVEVKKPGASVKVSCKASGYTFTNYYMYWVRQAPGQGLEWMGGINPSNGGTNFNEKFKNRVTLTTDSSTTTAYMELKSLQFDDTAVYYCARRDYRFDMGFDYWGQGTTVTVSSASTKGPSVFPLAPSSKSTSGGTAALGCLVKDYFPEPVTVSWNSGALTSGVHTFPAVLQSSGLYSLSSVVTVPSSSLGTQTYICNVNHKPSNTKVDKKV[human IgG1 Fc with L234A L235A P329A T366W (EU numbers) omitted here]GGGGSGGGGSGGGGSAPASSSTKKTQLQLEHLLLDLQMILNGINNYKNPLTRMLTAKFRMPKKATELKHLQCLEEELKPLEEVLNLAQSKNFHLRPRDLISDINVIVLELKGSETTFMCEYADETATIVEFLNRWITFSQSIISTLT
light: B6 light
EC50 (ng/mL)-PD1+ HEK Blue/IL-2 (human PD-1): 0.171 ng/mL | EC50 (ng/mL)-PD1- HEK-Blue/IL-2 [3]: 11600 ng/mL | Kd [4]: 2.4 nM | koff [4]: 0.000331 s⁻¹ | kon [4]: 138000 M⁻¹ s⁻¹

B10: bispecific recombinant protein 309-1 (other)
heavy 1: B6 heavy 1
heavy 2: QVQLVQSGVEVKKPGASVKVSCKASGYTFTNYYMYWVRQAPGQGLEWMGGINPSNGGTNFNEKFKNRVTLTTDSSTTTAYMELKSLQFDDTAVYYCARRDYRFDMGFDYWGQGTTVTVSSASTKGPSVFPLAPSSKSTSGGTAALGCLVKDYFPEPVTVSWNSGALTSGVHTFPAVLQSSGLYSLSSVVTVPSSSLGTQTYICNVNHKPSNTKVDKKV[human IgG1 Fc with L234A L235A P329A T366W (EU numbers) omitted here]GGGGSGGGGSGGGGSAPASSSTKKTQLQLQHLLLDLQMILNGINNYKNPLTRMLTAKFRMPKKATELKHLQCLEEELKPLEEVLNLAQSKNFHLRPRDLISNINVIVLELKGSETTFMCEYADETATIVEFLNRWITFSQSIISTLT
light: B6 light
EC50 (ng/mL)-PD1- HEK-Blue/IL-2 [3]: 11.6 ng/mL | Kd [4]: 0.86 nM | koff [4]: 0.000125 s⁻¹ | kon [4]: 145000 M⁻¹ s⁻¹
